The supplement of paper PMC11417369
The other results are listed elsewhere or left out.

Tested on: PF3D7_0420300 AP2 domain 1 (GST-tagged)
Test: gcPBM binding intensity (ln(normalized median fluorescence intensity)); higher = stronger DNA binding
Method in brief: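 Probes on an Agilent 4 × 180k array were primer-extended, double-stranded and 36 bp long, taken from intergenic genomic regions, with negative controls added. GST-tagged P. falciparum DNA-binding domains from E. coli, about 25 μg on average, were applied to the array for 1 h in 1× PBS containing 1% milk, 0.2 mg/ml BSA, 0.5% salmon testes DNA and 0.03% Triton X-100. Binding intensity, obtained after Alexa488 anti-GST antibody detection and a 488 nm scan, is the highest Masliner-normalised natural-log median intensity across replicate spots of either probe orientation.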

| Sequence | gcPBM binding intensity (ln) |
| --- | --- |
| TATTATAGTCCGACTTTTTAATTTCTTTATTGTTTT [CACACA_negctrl_site1381] | 9.41 |
| TGAATATTCATATGCACACAAATTAATATACATAAT [CACACA_site442] | 9.46 |
| AAATTTTAATTAGACTGTACACATTTTAGAATAATT [XGTACX_site4819] | 9.11 |
| TTTTATGTTTTAAAATGTACGTGTCAATGAATAAGT [XGTACX_site6239] | 9.24 |
| TTCGCTGTTTTAATTAGTACTTATATATAATATTAT [XGTACX_site1149] | 9.67 |
| TATTGATATATATATATATATATATGTATATACTTA [GTGCAC_negctrl_site111] | 9.07 |
| CTAAACCTTTTGAGCACACATATATATATATATATA [CACACA_site1782] | 9.19 |
| TTTTTATTTTCATATGTGCACTTATATATATATATA | 9.46 |
| TTTTTATATAAGAAAAAATTATAACAATTTGTTAAT [XGTACX_negctrl_site422] | 8.74 |
| ATGTCACAATTTTTCACACACAAAATTTAAATACAT [CACACA_site5168] | 9.62 |
| TATTATTATATATATAGTACATAAAATATAAAAAAA [XGTACX_site2060] | 9.17 |
| TTTTTTTTTTAAATGTGTCCTCATTATAATATATGT [XGTACX_site5331] | 9.24 |
| TTTTTTAAATTATATTATAGCAAATAAATATTAAAA [CACACA_negctrl_site1655] | 8.62 |
| GCATTATTATATATTTGTACATATTTTTTTTTAAAA [XGTACX_site5436] | 9.37 |
| AATTATATATAAAGAAGTACTATTTCAAGGAGTTTT [XGTACX_site3837] | 9.29 |
| AATAAAACATCATCATGTACAAAATTCGTCTTTGTA [XGTACX_site4821] | 9.21 |
| CAAAATATATATGACACACACAAAAAAAGTATATTA [CACACA_site1589] | 9.87 |
| TCAAATTTTCAACATTGTACATAAATGTATAAATAT [XGTACX_site6042] | 8.97 |
| CAATTTATAAAGAAAACACACATATACATAAATACA [CACACA_site4829] | 9.83 |
| TATATATATGGACACACACACATATATATATATTTT [CACACA_site5409] | 9.96 |
| TATATATAATATAGTGCATGTAAAAAATAAACCATG [TGCATGCA_site932] | 9.24 |
| TATAAATTAAAACATTGTACATTTTTATTATTATGT [XGTACX_site579] | 9.16 |

| Sequence | gcPBM binding intensity (ln) |
| --- | --- |
| TATCTTACTTTTTGCACACACTAATATTATTGTTTA [CACACA_site4990] | 9.9 |
| AAAATTAATATCTTGGTGCATTTTTTAATATTATTA [GTGCAC_site9638] | 9.28 |
| ACAACTATTCATCATAGTACACGCATGATATATATA [XGTACX_site1539] | 9.3 |
| TTCAATAGTAAGTATACACACATATAAATAAATAAA [CACACA_site7295] | 9.48 |
| AAAAAAAAAATATATTGTACAATATTGTAGCTATAT [XGTACX_site7180] | 9.3 |
| GCAACCTTGTGCAAATGTACAAAAAAAAAAAAAAAA [XGTACX_site679] | 8.54 |
| TTTTTGTTATTTTTAGTGCAGAAGAATAAATTTTAA | 8.83 |
| AAAATTTCTTATTTTGTACACACAATAAATATTCAC [CACACA_site8464] | 9.4 |
| TTTTTATTGTTGCTATATTTATAACAATTTATCATA [GTGCAC_negctrl_site75] | 9.14 |
| TTTAGATAATTCATTACACACATGTATATATATATA [CACACA_site3483] | 9.38 |
| TAAGGAAGAAGAAAAAGTACTAAAGGTATAAATGCG [XGTACX_site2628] | 9.45 |
| AGAACTTAATGCTGCACACAAAAAAAAGGAAAAATA [CACACA_site1353] | 9.48 |
| TTCTTTAAAATGATATACGTTATAAATATATATATA [XGTACX_negctrl_site256] | 9.07 |
| AACTTGTATATATACACACACACACTGTCTTTTTTT [CACACA_site1963] | 10.2 |
| AAAAAAAAGTTGTAAGTGCATGTATATAATAATATT | 9.36 |
| TGATCACATAATAAATGTACAAAAAAAAATTAATAA [XGTACX_site5867] | 9.06 |
| GCTAGTTCATAAAATTGTACAAAAAAAAAAAAAAAA [XGTACX_site2223] | 8.72 |
| AAAAAAAAAAAAAAAAGTACATGCCATATATTTTCA [XGTACX_site4580] | 9.11 |
| TTTTTTATCTAATATTTTATAATTTTCATAAATTTG [GTGCAC_negctrl_site534] | 9.03 |
| TAAATAATGTTAAACACACATACCGATATATAATTA [CACACA_site2711] | 9.45 |
| AAATAATCTATACACAACGTATAAGAATAATATATG [TGCATGCA_negctrl_site422] | 9.32 |
| AATAGAAACATTTTACATGTATATATAATTTTTTTT [XGTACX_negctrl_site190] | 9.12 |
